# From PubChem BioAssay AID652104 (National Center for Advancing Translational Sciences (NCATS), 2013)
# The campaign covered roughly 410,000 compounds. About 7,200 (1.8%) were called active. The shares of active, inactive and inconclusive entries below differ from those in the screen. The call rests on the fitted dose curve; in most records, active means well fitted activation curve with a large enough effect; inconclusive means small, poorly fitted or top-dose-only effect, or another doubt; inactive means no such curve, though single readings can be large or run the other way. Potencies of inconclusive entries are left out as doubtful fits.
# Test: qHTS of TDP-43 Inhibitors; further: nearly all actives have a fitted effect of over 50% in size; on growth rescue (activation): % of control where 0% means no effect
# Conditions: TDP-43 expressing yeast growth rescue, BacTiter-Glo, 24 h; growth rescue (activation): at 46.1 µM (top of the series) unless noted
# Outline: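 Readout is BacTiter-Glo luminescence of cell growth, so inhibitors register as activators. TDP-43-expressing yeast at OD600=0.02 in galactose medium, after raffinose pregrowth to mid-log, were incubated with compound for 24 hr at 30 deg C.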
# Potency means the concentration at half of the fitted maximal effect; tags describe the fitted curve by direction and shape.
Compound,Potency,growth rescue (activation)
O=C(CSCC(=O)N1CCCc2ccccc21)Nc1nc(-c2ccccc2)cs1,active: 11.2 µM,–
CCC1=Nc2cc(C(=O)N3CCCCC3)ccc2Sc2ccc(C)cc21,inactive,–
COc1ccccc1NS(=O)(=O)c1ccc2oc(SCc3ccc(F)cc3)nc2c1,"inconclusive [activator, partial curve]",–
CCOc1ccc2nc(N3CCC(C(=O)N4CCN(C(=O)c5ccco5)CC4)CC3)sc2c1,"inconclusive [activator, partial curve]",–
O=C(c1ccc(Cl)cc1)C1CCN(C(=O)c2ccccc2F)CC1,"inconclusive [activator, partial curve]",–
COc1ccc(S(=O)(=O)N(CCc2ccccc2)CC(=O)Nc2cccc(OC)c2)cc1,inactive,–
CCCc1cc(-c2n[nH]c(=S)n2CC(C)C)cs1,"inconclusive [activator, partial curve]",–
O=C(COC(=O)c1ccccc1F)c1ccc(-n2nncc2-c2ccco2)cc1,"inconclusive [activator, single point]",–
O=C(c1ccc2c(c1)OCCO2)C1CCN(S(=O)(=O)c2ccccc2F)CC1,"inconclusive [activator, single point]",–
CCn1c(-c2ccccc2)ccc(C#N)c1=O,"inconclusive [activator, partial curve]",–
Cc1cc(C(=O)Nc2ccc(F)cc2C)cs1,"inconclusive [activator, partial curve]",–
CC(C)(C)C(=O)OC/C(N)=N/OC(=O)c1ccc(Cl)cc1,"inconclusive [activator, partial curve]",–
Cc1ccccc1S(=O)(=O)N1[C@@H](c2ccc(Br)cc2)C(C(=O)O)=CC[C@H]1c1ccc(Cl)cc1,"inconclusive [activator, single point]",–
COc1cccc(N2CCN(C(=O)c3ccc(-c4ccccc4)cc3)CC2)c1,active: 12.6 µM,–
Cc1cccc(OCC(=O)Nc2ccc3oc(=O)ccc3c2)c1,"inconclusive [activator, single point]",–
N/C(=N\OC(=O)c1ccco1)c1cccc(Br)c1,active: 11.2 µM,–
COc1ccc(S(=O)(=O)N2CCC(n3c(C(F)(F)F)nc4cccnc43)CC2)cc1OC,inactive,–
Cc1cccc(NC(=O)CSc2nnc(CNC(=O)c3ccco3)n2C)c1,"inconclusive [activator, single point]",–
CC1(C(=O)Nc2cccc(Oc3ccccc3)c2)CCN1Cc1cccc2c1OCO2 (centres undefined),"inconclusive [activator, partial curve, poor fit]",–
O=C(NCCCc1ccccc1)c1cc(COc2ccc(F)cc2Cl)on1,"inconclusive [activator, single point]",–
c1ccc2c(c1)OCC(CNc1ncnc3nc[nH]c13)O2 (centres undefined),"inconclusive [activator, single point]",–
COc1cc(NC(=O)CSc2nc3nc(C)c(Cc4ccc(C)cc4)c(C)n3n2)cc(OC)c1,inactive,–

Compound,Potency,growth rescue (activation)
O=C(Nc1ccccc1)c1ccc(-c2ccccc2C(F)(F)F)o1,"inconclusive [activator, partial curve]",–
Cc1cc(C)nc(NC(=O)/C=C/c2ccccc2Cl)n1,inactive,–
S=c1[nH]cnc2scc(-c3ccccc3)c12,"inconclusive [activator, single point]",–
Clc1nssc1=Nc1ccc(Br)cc1,–,inconclusive: -91.3% [activator]
CN(Cc1ccccc1)c1cc(Cl)nc(N)n1,"inconclusive [activator, single point]",–
Cc1c(Cl)cccc1NC(=O)CN1C(=O)COc2ccc(S(=O)(=O)Nc3ccccc3)cc21,"inconclusive [activator, full curve, poor fit]",–
Cc1ccc(NC(=O)CCl)cc1S(=O)(=O)N1CCCCCC1,"inconclusive [activator, partial curve]",–
C[C@H](NC(=O)c1ccc(Cl)cc1)C(=O)OCn1nnc2ccccc2c1=O,"inconclusive [activator, single point]",–
CC(C)COC(=O)c1cccc2c1-c1ccccc1/C2=N\O,"inconclusive [activator, single point]",–
O=C(NC1(Cc2ccccc2)CCN(Cc2ccc(-c3ccccc3)cc2)C1=O)c1ccccc1 (centres undefined),"inconclusive [activator, partial curve]",–
Cn1nnc2c(N3CCN(c4ccccc4F)CC3)ncnc21,inactive,–
CCCCCC(=O)NNC(=S)NC(=O)c1cccc([N+](=O)[O-])c1,"inconclusive [activator, partial curve]",–
Cc1ccc(NC(=O)C2OCCc3ccccc32)cc1 (centres undefined),"inconclusive [activator, partial curve]",–
O=C(Nc1ccc2c(c1)OCO2)c1noc2c1CCCCC2,"inconclusive [activator, single point]",–
COc1cccc(C(=O)Nc2ccccc2N2CCOCC2)c1,active: 12.6 µM,–
Cn1c(=O)[nH]c(=O)c2c1nc(Br)n2CC(O)COc1ccc(Cl)cc1 (centres undefined),inactive,–
Oc1ccc(-c2nccc(-c3ccc(F)cc3)n2)cc1,"inconclusive [activator, single point]",–
CCc1sc(C(=O)N2CCN(c3ccc(F)cc3)CC2)cc1C,"inconclusive [activator, single point]",–
Cc1ccccc1CNS(=O)(=O)c1ccc2c(c1)OCCO2,"inconclusive [activator, single point]",–
Cc1ccc(S(=O)(=O)N2CCOCC2)cc1NC(=O)CSc1nc(N)cc(=O)[nH]1,inactive,–
Cc1ccc(CN(C(=O)COc2cccc([N+](=O)[O-])c2)c2ccccn2)cc1,"inconclusive [activator, partial curve]",–
Cc1cc(NC(=O)C2CCCCC2)nc2c1c(=O)oc1ccccc12,"inconclusive [activator, single point]",–
